Not every detail of the peptide structures is certain; ends, links or a residue may be inferred. Non-standard residues stand in square brackets, D forms with d. Residues, ends and D or L forms follow the SMILES beside them. Groups on a side chain read outwards from the residue. *: point of attachment. His(π-Bom) = N[C@@H](Cc1cncn1COCc1ccccc1)C(=O)O; d(tBuAla) = CC(C)(C)C[C@@H](N)C(=O)O; N(Me)CH2CH2Ph = CN(CCc1ccccc1)*; NHPhenethyl = c1ccc(CCN*)cc1; Tos = Cc1ccc(S(=O)(=O)*)cc1; Ac5c = NC1(C(=O)O)CCCC1; X2 = c1ccc2c(c1)CCN2*; NHBn = c1ccc(CN*)cc1; X5 = CC(CN*)c1ccccc1
What was measured:
[1] = target: T1, endothelin receptor A (ETA) (Sus scrofa, UniProt Q29010); test: Assay of affinity for receptor (1): binding activity on ETA receptor, 125I-labeled endothelin-1, porcine heart membrane fraction; design: key: relative specific activity; reference cyclic pentapeptide ETA binding = 1.0; conditions: specific activity, taking the binding activity of control cyclo[-D-Glu-Ala-D-aIle-Leu-D-Trp-] on receptor A as 1.0, 25°C, 1 hour
T1 construct: A membrane fraction prepared from the porcine heart; from tissue; host or cells: porcine heart membrane fraction
T1 sequence (Q29010 21-427): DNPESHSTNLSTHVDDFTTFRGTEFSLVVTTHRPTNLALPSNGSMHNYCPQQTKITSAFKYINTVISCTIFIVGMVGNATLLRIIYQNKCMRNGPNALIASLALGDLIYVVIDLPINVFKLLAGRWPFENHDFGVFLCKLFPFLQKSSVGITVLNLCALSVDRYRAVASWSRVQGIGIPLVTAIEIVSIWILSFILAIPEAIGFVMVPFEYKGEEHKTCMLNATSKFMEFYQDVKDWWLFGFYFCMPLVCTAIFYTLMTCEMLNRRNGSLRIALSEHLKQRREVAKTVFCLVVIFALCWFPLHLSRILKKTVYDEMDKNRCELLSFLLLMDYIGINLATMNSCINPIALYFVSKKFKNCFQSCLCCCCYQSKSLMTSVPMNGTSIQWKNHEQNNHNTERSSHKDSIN
Experimental: Assay of Affinity for Receptor (1) ... Binding Activity on ETA Receptor
A membrane fraction prepared from the porcine heart was diluted to 0.15 mg/ml by using a buffer solution for assay, and 100 µl of the resulting suspension of the membrane fraction was poured into each assay tube to use for assay. To this suspension of the membrane fraction was added 2 µl of 5 nM ^125I-labeled endothelin-1 solution. Further, 3 µl of a test peptide solution was added thereto, followed by incubation at a temperature of 25°C for 1 hour. Then, the resulting suspension was diluted with 900 µl of the buffer solution for assay cooled with ice, and thereafter separated into a supernatant and a precipitate by centrifugation at 12,000 X g for 10 minutes. Cell membranes and an endothelin receptor A (ETA) embedded therein were contained in the precipitate, and radioactive iodine-labeled endothelin combined with the receptor was also recovered in the precipitate. Accordingly, the amount of radioactive iodine-labeled endothelin combined with the endothelin receptor A (ETA) was determined by measuring the amount of radioactive iodine contained in the precipitate with a gamma-ray counter. The cyclic pentapeptide described in Japanese Patent Application No. 2-413328/1990, cyclo[-D-Glu-Ala-D-aIle-Leu-D-Trp-], was used as a control compound. The numerical value of ETA shown in Table 1 is the value of specific activity, taking the binding activity of this cyclic pentapeptide on the receptor A as 1.0. The binding activity (IC50) of this cyclic pentapeptide on the ETA receptor is 2x10^-6 M.

ETB = ETB radio receptor assay *2, 125I-endothelin-1, guinea pig kidney crude membrane fraction; type: binding, Guinea pigs; conditions: relative activity, 37 °C, 90 minutes
Experimental: ETB Radio Receptor Assay *2
In the endothelin radio receptor assay, guinea pigs' kidneys were used. Guinea pigs (Std Hartrey, male 250 g, Japan SLC Ltd.) were made to have a cerebral concussion and sacrificed by bleeding from carotid arteries to pick up the kidneys and removed fat therefrom to prepare the kidneys. The obtained kidneys were sliced and homogenized by politron homogenizer in 20 ml of 50 mM Tris-HCl buffer [pH 7.4; 20 mM NaHCO3, 0.1 mM PMSF (Phenylmethylsulfonyl Fluoride), 1 mM EDTA (Ethylenediaminetetraacetic acid)] per one kidney. The homogenized kidney was applied to a centrifugation at 1,000 x g for 15 minutes and the supernatant was further applied to a centrifugation for 20 minutes at 30,000 x g. The resulting precipitate was twice washed with 50 mM Tris-HCl buffer (pH 7.4) containing 0.1 mM PMSF, 1 mM EDTA. The resultant was stored at -80 °C as a crude receptor membrane fraction and was used as the suspension in the following buffer when necessary.
740 Bq of ^125I-endothelin-1 (81.4 TBq/mmol, Du Pont, USA) as a radio ligand, the crude membrane fraction (2.1 µg protein) and samples were added to the following buffer. The reaction was performed at 37 °C, for 90 minutes in 0.2 ml of the buffer [50 mM Tris-HCl buffer (pH 7.4) containing 0.1 mM PMSF, 1 mM EDTA, 0.2% bovine serum albumin].
The reaction was stopped by fast filtration on a glass filter (GF/B, Wattman, USA) by Cell Harvestor (290 PHD, Cambridge-Technology, Great Britain), and the filter was three times washed with 50 mM Tris-HCl buffer (pH 7.4). Radio activity remained on the filter was assayed by a gamma counter.

SMILES | Binding Activity on ET Receptor (R. act.) ETA [1] | Binding Activity on ET Receptor (R. act.) ETB*2 (ETB)
CC(C)C[C@@H]1NC(=O)[C@@H](CC(C)C)NC(=O)[C@H](CC(=O)O)NC(=O)[C@H](CC(=O)NCC(C)c2ccccc2)NC(=O)[C@@H](CC(=O)O)NC(=O)[C@@H](Cc2c[nH]c3ccccc23)NC1=O (stereo partly drawn) [Example 69, Cyclo[-D-Asp-Asn(CH2CHMePh)-Asp-D-Leu-Leu-D-Trp-]] (cyclo(D(X5)D[dL]L[dW][dD])) | 140 | 60
CC(C)C[C@@H]1NC(=O)[C@@H](CC(C)C)NC(=O)[C@H](CC(=O)O)NC(=O)[C@H](CCC(=O)N2CCc3ccccc32)NC(=O)[C@@H](CC(=O)O)NC(=O)[C@@H](Cc2c[nH]c3ccccc23)NC1=O [Example 76, Cyclo[-D-Asp-Glu(R3)-Asp-D-Leu-Leu-D-Trp-]] (cyclo(D[dL]L[dW][dD]E(X2))) | 17 | 57
CC(C)C[C@@H]1NC(=O)[C@@H](CC(C)C)NC(=O)[C@H](CC(=O)O)NC(=O)[C@H](CCC(=O)NCc2ccccc2)NC(=O)[C@@H](CC(=O)O)NC(=O)[C@@H](Cc2c[nH]c3ccccc23)NC1=O [Example 62, Cyclo[-D-Asp-Gln(CH2Ph)-Asp-D-Leu-Leu-D-Trp-]] (cyclo(D[dL]L[dW][dD]E(NHBn))) | 170 | 120
CC(C)C[C@@H]1NC(=O)[C@@H](CC(C)C)NC(=O)[C@H](CC(=O)O)NC(=O)[C@H](Cc2cncn2COCc2ccccc2)NC(=O)[C@@H](CC(=O)O)NC(=O)[C@@H](Cc2c[nH]c3ccccc23)NC1=O [Example 84, Cyclo[-D-Asp-His(Bom)-Asp-D-Leu-Leu-D-Trp-]] (cyclo(D[dL]L[dW][dD][His(π-Bom)])) | 20 | 80
CC(C)C[C@@H]1NC(=O)[C@@H](CC(C)C)NC(=O)[C@H](CC(=O)O)NC(=O)[C@H](CCC(=O)NCCc2ccccc2)NC(=O)[C@@H](CC(=O)O)NC(=O)[C@@H](Cc2c[nH]c3ccccc23)NC1=O [Example 63, Cyclo[-D-Asp-Gln(CH2CH2Ph)-Asp-D-Leu-Leu-D-Trp-]] (cyclo(D[dL]L[dW][dD]E(NHPhenethyl))) | 130 | 340
CC(C)C[C@@H]1NC(=O)[C@@H](CC(C)C)NC(=O)[C@H](CC(=O)O)NC(=O)[C@H](CC(=O)N[C@H](Cc2c[nH]c3ccccc23)C(=O)NCc2ccccc2)NC(=O)[C@@H](CC(=O)O)NC(=O)[C@@H](Cc2c[nH]c3ccccc23)NC1=O [Example 93, Cyclo[-D-Asp-Asp(D-Trp-NHBzl)-Asp-D-Leu-Leu-D-Trp-]] (cyclo(D([dW-NHBn])D[dL]L[dW][dD])) | 110 | 270
CC(C)C[C@@H]1NC(=O)[C@@H](CC(C)C)NC(=O)[C@H](CC(=O)O)NC(=O)[C@H](CC(=O)N2CCc3ccccc32)NC(=O)[C@@H](CC(=O)O)NC(=O)[C@@H](Cc2c[nH]c3ccccc23)NC1=O [Example 72, Cyclo[-D-Asp-Asp(R3)-Asp-D-Leu-Leu-D-Trp-]] (cyclo(D(X2)D[dL]L[dW][dD])) | 45 | 100
CC(C)C[C@@H]1NC(=O)[C@@H](CC(C)C)NC(=O)[C@H](CC(=O)O)NC(=O)[C@H](CC(=O)N[C@@H](Cc2c[nH]c3ccccc23)C(=O)NCc2ccccc2)NC(=O)[C@@H](CC(=O)O)NC(=O)[C@@H](Cc2c[nH]c3ccccc23)NC1=O [Example 92, Cyclo[-D-Asp-Asp(Trp-NHBzl)-Asp-D-Leu-Leu-D-Trp-]] (cyclo(D([Trp-NHBn])D[dL]L[dW][dD])) | 95 | 260
CC(C)C[C@@H]1NC(=O)[C@@H](CC(C)C)NC(=O)[C@H](CC(=O)O)NC(=O)[C@H](CC(=O)N(C)CCc2ccccc2)NC(=O)[C@@H](CC(=O)O)NC(=O)[C@@H](Cc2c[nH]c3ccccc23)NC1=O [Example 68, Cyclo[-D-Asp-Asn(Me· CH2CH2Ph)-Asp-D-Leu-Leu-D-Trp-]] (cyclo(D(N(Me)CH2CH2Ph)D[dL]L[dW][dD])) | 24 | 52
CC(C)C[C@@H]1NC(=O)[C@@H](CC(C)(C)C)NC(=O)[C@H](CC(=O)O)NC(=O)[C@H](Cc2c[nH]c3ccccc23)NC(=O)[C@@H](CC(=O)O)NC(=O)[C@@H](Cc2c[nH]c3ccccc23)NC1=O [Example 54, Cyclo[-D-Asp-Trp-Asp-D-γMeLeu-Leu-D-Trp-]] (cyclo(D[d(tBuAla)]L[dW][dD]W)) | 99 | 1000
Cc1ccc(S(=O)(=O)NC(=N)NCCC[C@@H]2NC(=O)[C@@H](CC(=O)O)NC(=O)[C@@H](Cc3c[nH]c4ccccc34)NC(=O)[C@H](CC(C)C)NC(=O)[C@@H](CC(C)C)NC(=O)[C@H](CC(=O)O)NC2=O)cc1 [Example 65, Cyclo[-D-Asp-Arg(Tos)-Asp-D-Leu-Leu-D-Trp-]] (cyclo(D[dL]L[dW][dD]R(Tos))) | 20 | 63
CC(C)C[C@@H]1NC(=O)C2(CCCC2)NC(=O)[C@H](CC(=O)O)NC(=O)[C@H](Cc2c[nH]c3ccccc23)NC(=O)[C@@H](CC(=O)O)NC(=O)[C@@H](Cc2c[nH]c3ccccc23)NC1=O [Example 44, Cyclo[-D-Asp-Trp-Asp-Acpe-Leu-D-Trp-]] (cyclo([Ac5c]L[dW][dD]WD)) | 34 | 11

From EP0552417B1, “Cyclic peptides and use thereof” (priority 1991, dated 1993)
